# About 14,000 (4.5%) of roughly 310,000 compounds showed an effect of 50% or more. The effect is printed as a negative number. The list shows a part of the results. Where a SMILES comes first, the peptide text is derived from it. The star is where a group is joined. OBn = c1ccc(CO*)cc1
# Molecular target: human ether-à-go-go-related gene (hERG) potassium channel (human, UniProt Q12809)
# Experiment: primary screen, population patch clamp on CHO cells stably expressing hERG
# 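Also: peak tail current of the secondary pulse compared with the same well before compound.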
# Chain of human ether-à-go-go-related gene (hERG) potassium channel (Q12809 whole entry, looked up): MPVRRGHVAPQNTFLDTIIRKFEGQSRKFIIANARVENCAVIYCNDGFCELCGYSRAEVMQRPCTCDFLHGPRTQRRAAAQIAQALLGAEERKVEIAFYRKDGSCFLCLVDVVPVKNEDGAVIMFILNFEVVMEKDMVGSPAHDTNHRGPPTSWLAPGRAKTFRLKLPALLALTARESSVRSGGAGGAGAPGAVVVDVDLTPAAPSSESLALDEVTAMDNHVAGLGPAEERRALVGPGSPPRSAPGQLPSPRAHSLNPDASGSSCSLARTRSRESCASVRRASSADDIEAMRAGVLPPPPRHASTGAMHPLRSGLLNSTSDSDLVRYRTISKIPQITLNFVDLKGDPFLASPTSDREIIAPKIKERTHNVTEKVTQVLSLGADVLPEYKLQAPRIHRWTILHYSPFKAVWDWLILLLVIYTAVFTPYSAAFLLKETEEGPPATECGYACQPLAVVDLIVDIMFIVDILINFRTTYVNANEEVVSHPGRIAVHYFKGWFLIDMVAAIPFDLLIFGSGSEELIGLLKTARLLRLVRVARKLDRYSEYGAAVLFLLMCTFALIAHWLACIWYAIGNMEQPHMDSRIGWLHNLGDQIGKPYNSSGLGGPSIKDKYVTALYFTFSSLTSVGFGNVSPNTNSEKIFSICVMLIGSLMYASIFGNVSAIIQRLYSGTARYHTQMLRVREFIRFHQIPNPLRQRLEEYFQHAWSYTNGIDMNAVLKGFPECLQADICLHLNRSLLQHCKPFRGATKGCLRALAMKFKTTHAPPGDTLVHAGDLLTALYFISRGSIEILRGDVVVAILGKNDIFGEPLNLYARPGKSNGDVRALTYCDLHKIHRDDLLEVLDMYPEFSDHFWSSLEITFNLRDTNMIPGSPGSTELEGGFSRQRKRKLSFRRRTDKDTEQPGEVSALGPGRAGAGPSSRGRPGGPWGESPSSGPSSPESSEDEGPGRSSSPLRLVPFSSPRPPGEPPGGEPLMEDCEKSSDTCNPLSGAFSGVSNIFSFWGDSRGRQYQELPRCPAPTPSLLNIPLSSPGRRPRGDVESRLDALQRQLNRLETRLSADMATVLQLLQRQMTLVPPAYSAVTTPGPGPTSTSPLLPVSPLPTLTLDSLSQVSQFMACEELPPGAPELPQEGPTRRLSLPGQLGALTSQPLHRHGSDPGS
row,SMILES,"hERG current change (%, negative = inhibition) at 10uM [%]"
1,Cc1oc(-c2ccc(Cl)cc2)nc1CSCC(=O)NC1CCN(Cc2ccccc2)CC1,-73.1
2,C=CCn1c(SCc2ccc(C(=O)Nc3nccs3)cc2)nnc1-c1ccc(C)c(Cl)c1,-2.77
3,O=C(CN1C(=O)C(=O)c2ccccc21)c1ccc(Cl)cc1,7.41
4,CCc1cc2c(CN(C)Cc3ccccc3F)cc(=O)oc2cc1O,8.45
5,Cc1cc(F)ccc1S(=O)(=O)N1CCCOC1CNC(=O)C(=O)NCCc1ccccc1 (stereo not drawn),-19.1
6,Cc1ccc(-c2nc3ccccn3c2C=O)cc1,3.26
7,Cc1ccc(NCc2nc3ccccc3n2C)cc1C,6.28
8,O=C(Cc1ccccc1)NCC(=O)OCC(=O)c1ccc(Cl)c([N+](=O)[O-])c1,-2.74
9,COc1ccc(C(=O)N/C(=C/c2ccc(Cl)cc2)C(=O)NCc2ccncc2)cc1,-65.4
10,CN1CCN(c2nc([N+](=O)[O-])nn2C)CC1,4.26
11,COc1ccc2cc(C3=CCCCC3)ncc2c1,-0.981
12,Cc1ccc([N+](=O)[O-])c2c1C(N1CCCCC1)C(C)(C)O2 (stereo not drawn),-17.7
13,O=C(C#Cc1ccccc1)Nc1ccccc1F,0.842
14,CCCC(c1nnnn1CCc1ccccc1)N1CCN(C2CCCC2)CC1 (stereo not drawn),-48.9
15,CC(=O)/C(=N\Nc1ccc(C)cc1)Sc1nncn1C,-12.8
16,CCc1nc(C)ccc1OCC(=O)O.Cl,-3.86
17,Cc1nc[nH]c(=O)c1Br,11.6
18,Cc1cccc(NS(=O)(=O)c2c(C(=O)N3CCCC3)c(C)n(C)c2C)c1,18.1
19,COc1cccc(NC(=O)CN(C)C(C)C(=O)N2CCCC2)c1 (stereo not drawn),-9.5

row,SMILES,"hERG current change (%, negative = inhibition) at 10uM [%]"
1,COc1cc(/C=C/C(=O)OCN2C(=O)c3ccccc3C2=O)ccc1OC(F)F,13.3
2,O=C(Nc1ccccc1Cl)c1cc(=O)c2ccccc2o1,13.1
3,CC(=O)OC1N=C(c2ccccc2Cl)c2cc(Br)ccc2NC1=O (stereo not drawn),-40.3
4,CN(C)c1ccc(CNn2cnnc2)cc1,-10.3
5,CCC(=O)Nc1nc(C)c(-c2csc(Nc3cccc(C(=O)O)c3)n2)s1,0.236
6,CCc1cc2cc(C)ccc2nc1SCC(=O)N1CCN(C(=O)c2ccco2)CC1,-53.4
7,CCOC(=O)c1nnn(-c2nc(N(C)C)nc(N(C)C)n2)c1C,14.1
8,Cn1cnc([N+](=O)[O-])c1SCC(O)CCl (stereo not drawn),15.9
9,Cc1ccc(CCC(=O)Nc2ccc(S(N)(=O)=O)cc2)o1,10.2
10,COc1cccc(/C=N/NC(=O)CCc2c(C)n[nH]c2C)c1,23
11,O=C(COC(=O)c1ccc(O)cc1O)NC12CC3CC(CC(C3)C1)C2,-5.6
12,CCCCN1C(=O)c2ccc(C(=O)Nc3ccc(S(=O)(=O)N(C)C)cc3)cc2C1=O,-0.448
13,Cn1nnc(NC(=O)c2cccs2)n1,-7.13
14,CCCCN(C)C(=O)C1CCN(CCCc2ccccc2)CC1.O=C(O)C(=O)O,-73.4
15,O=C(Nc1ccccc1N1CCN(C(=O)c2ccc(Cl)cc2)CC1)c1cccc(F)c1,-78.9
16,CCc1nnc(NC(=O)c2ccc(-c3ccc([N+](=O)[O-])cc3Cl)o2)s1,12.6
17,Cc1ccc(CN2CCSc3ccc(C(=O)NCc4cccnc4)cc32)cc1,-2.7
18,COc1ccc(OC)c(NC(=O)NCCc2c[nH]c3ccccc23)c1,1.79
19,O=C(c1cc(-c2cccc(O)c2)on1)N1CCN(C(c2ccccc2)c2ccccc2)CC1,10.8

row,SMILES,"hERG current change (%, negative = inhibition) at 10uM [%]"
1,COc1ccc(OC)c(S(=O)(=O)NCCc2csc(-c3cccnc3)n2)c1,4.92
2,Cc1ccc(N(CC(=O)Nc2ccc(-c3nc4ccc(C)cc4s3)cc2)S(C)(=O)=O)cc1,19.3
3,COC(=O)c1cc(C)cc(=O)o1,0.996
4,COc1cc(OC)c(OC)cc1CN1CCCC(C(=O)c2sccc2C)C1 (stereo not drawn),-63.4
5,CC(=O)N=c1sc2cc(C)ccc2n1C,4.8
6,Cc1ccc(C2C(C(=O)c3sc(C)nc3C)=C(O)C(=O)N2CCN(C)C)o1 (stereo not drawn),0.959
7,COc1ccc(S(=O)(=O)N2CCCOC2CNC(=O)C(=O)NCCCn2ccnc2)cc1OC (stereo not drawn),11.5
8,CCC(C)C(N)C(=O)NC(CCC(=O)OCc1ccccc1)C(N)=O.Cl (stereo not drawn) (H-Ile-Glu(OBn)-NH2; configuration not given here),10.2
9,CN(C)/C(=N\S(=O)(=O)c1ccccc1)c1ccc(F)cc1,18.9
10,Cc1ccccc1NC(=O)Nc1cnccn1,-27.3
11,CN(CC(=O)NCCc1ccc(S(N)(=O)=O)cc1)Cc1c(F)cccc1Cl,6.04
12,Cc1nc2c(C(=O)O)cnn2c(C)c1Cc1ccccc1F,-1.35
13,COc1nnc(-c2ccc(N3CCOCC3)c(NC(C)=O)c2)c2ccccc12,-1.4
14,Cc1cc(CN(C)C(=O)CC2C(=O)NCCN2Cc2c(F)cccc2Cl)on1 (stereo not drawn),22.3
15,Cn1c(=O)c2sccc2n2c(CCCC(=O)NCc3cccnc3)nnc12,22.8
16,OC(CCc1ccncc1)COc1ccccc1 (stereo not drawn),3.52
17,Cc1ccc(NC(=O)CN2C(=O)CCSc3ccc(S(=O)(=O)N4CCCC4)cc32)cc1,19.6
18,Cc1ccc(S(=O)(=O)Oc2ccc(C(c3c(C)[nH][nH]c3=O)c3c(C)[nH][nH]c3=O)cc2)cc1,-1.83
19,Cc1nn(-c2ccccc2)c(Cl)c1C(=O)NNC(=O)c1ccncc1,3.87
